For 42 compounds, Ki results are on record in patent US8067379B2, “Sulfur compounds as inhibitors of hepatitis C virus NS3 serine protease” (Schering Corporation, priority 2004, dated 2011).

One assay concerns the target Recombinant heterodimeric HCV NS3/NS4A protease (strain 1a) (Hepatitis C virus genotype 1a, UniProt P27958). Put plainly: Spectrophotometric assay for HCV serine protease inhibitory activity (chromogenic ester substrates). The assay is classed as biochemical. The settings on record: Table 3, sulfide compounds; HCV serine protease; read-out: Ki* range.
As to `Cc1occc1SCC1(NC(=O)N[C@H](C(=O)N2C[C@H]3[C@@H]([C@H]2C(=O)NC(CC2CC2)C(=O)C(N)=O)C3(C)C)C(C)(C)C)CCCCC1` (stereo partly drawn) [Compound 124], the Ki fell in the range of 75 to 250 nM.

As for `CC(C)(C)[C@H](NC(=O)NC1(CSCc2ccco2)CCCCC1)C(=O)N1C[C@H]2[C@@H]([C@H]1C(=O)NC(CC1CC1)C(=O)C(N)=O)C2(C)C` (stereo partly drawn) [Compound 123], the Ki was less than 75 nM.

Still in this assay, the particulars now being: Table 3, sulfone compounds, rows without Prep. Ex. number; read-out: Ki* (numeric value, unlabelled structures at end of sulfone table, column without head).
Consider `C#CCNC(=O)C(=O)C(CC1CC1)NC(=O)[C@@H]1[C@@H]2[C@H](CN1C(=O)[C@@H](NC(=O)NC1(CS(=O)(=O)C(C)(C)CC)CCCCC1)C1(C)CCCCC1)C2(C)C` (stereo partly drawn), for which the Ki turned out to be 17 nM.

In the case of `C#CCNC(=O)C(=O)C(CC1CCC1)NC(=O)[C@@H]1[C@@H]2[C@H](CN1C(=O)[C@@H](NC(=O)NC1(CS(=O)(=O)C(C)(C)CC)CCCCC1)C1(C)CCCCC1)C2(C)C` (stereo partly drawn), the Ki was 34 nM.

In the case of `C#CCNC(=O)C(=O)C(CC1CC1)NC(=O)[C@@H]1[C@@H]2[C@H](CN1C(=O)[C@@H](NC(=O)NC1(CS(=O)(=O)C(C)(C)C)CCCCC1)C1(C)CCCCC1)C2(C)C` (stereo partly drawn), the Ki came out at 8 nM.

Staying with this assay, now noted: Table 3, sulfone compounds; HCV serine protease; read-out: Ki* range.
For `CC(C)CCS(=O)(=O)CC1(NC(=O)N[C@H](C(=O)N2C[C@H]3[C@@H]([C@H]2C(=O)NC(CC2CC2)C(=O)C(N)=O)C3(C)C)C(C)(C)C)CCCCC1` (stereo partly drawn) [Compound 280], the Ki was less than 75 nM.

Take `C=CCNC(=O)C(=O)C(CCC(F)(F)F)NC(=O)[C@@H]1[C@@H]2[C@H](CN1C(=O)[C@@H](NC(=O)NC1(CS(=O)(=O)c3ccccc3)CCCCC1)C(C)(C)C)C2(C)C` (stereo partly drawn) [Compound 180]: the Ki was less than 75 nM.

`CC(C)(C)[C@H](NC(=O)N[C@H](CS(=O)(=O)Cc1ccccc1)c1ccccc1)C(=O)N1C[C@H]2[C@@H]([C@H]1C(=O)NC(CC1CC1)C(=O)C(N)=O)C2(C)C` (stereo partly drawn) [Compound 152]: the Ki was in the range of 75 to 250 nM.

Consider `CC(C)(C)[C@H](NC(=O)NC1(CS(=O)(=O)C(C)(C)C)CCCCC1)C(=O)N1C[C@H]2[C@@H]([C@H]1C(=O)NC(CC1CCC1)C(=O)C(N)=O)C2(C)C` (stereo partly drawn) [Compound 240], for which the Ki is less than 75 nM.

`Cc1occc1S(=O)(=O)CC1(NC(=O)N[C@H](C(=O)N2C[C@H]3[C@@H]([C@H]2C(=O)NC(CC2CC2)C(=O)C(N)=O)C3(C)C)C(C)(C)C)CCCCC1` (stereo partly drawn) [Compound 233]: the Ki was less than 75 nM.

Turning to `CC(C)(C)[C@H](NC(=O)NC1(CCS(=O)(=O)c2ccccc2)CCCCC1)C(=O)N1C[C@H]2[C@@H]([C@H]1C(=O)NC(CC1CC1)C(=O)C(N)=O)C2(C)C` (stereo partly drawn) [Compound 186], the inhibitory constant (Ki) was less than 75 nM.

With `CC(C)[C@@H](CS(=O)(=O)C(C)(C)C)NC(=O)N[C@H](C(=O)N1C[C@H]2[C@@H]([C@H]1C(=O)NC(CC1CC1)C(=O)C(N)=O)C2(C)C)C(C)(C)C` (stereo partly drawn) [Compound 150], the Ki is less than 75 nM.

The assay is the same for the next values; noted with them: Table 3A; class symbols; read-out: Ki* Range.
As for `C=CCNC(=O)C(=O)[C@H](CCC1CC1)NC(=O)[C@@H]1[C@@H]2[C@H](CN1C(=O)[C@@H](NC(=O)NC1(CS(=O)(=O)C(C)(C)CF)CCCCC1)C1(C)CCCCC1)C2(C)C` [Compound 877], the Ki is less than 75 nM.

For the compound `C=CCNC(=O)C(=O)C(CC1CC1)NC(=O)[C@@H]1[C@@H]2[C@H](CN1C(=O)[C@H](CSC(C)(C)C)NC(=O)NC1(CS(=O)(=O)C(C)(C)C)CCCCC1)C2(C)C` (stereo partly drawn) [Compound 627], the Ki was more than 250 nM.

With `C=CCNC(=O)C(=O)[C@H](CC1CC1)NC(=O)[C@@H]1[C@@H]2[C@H](CN1C(=O)[C@@H](NC(=O)NC1(CS(=O)(=O)C(C)(C)CO)CCCCC1)C(C)(C)C)C2(C)C` [Compound 744], the Ki was less than 75 nM.

`CCCC(NC(=O)[C@@H]1[C@@H]2[C@H](CN1C(=O)[C@@H](NC(=O)N[C@@]1(CS(=O)(=O)C(C)(C)C)C[C@H]3C[C@H]3C1)C1(C)CCCCC1)C2(C)C)C(=O)C(=O)NC1CC1` (stereo partly drawn) [Compound 464]: the Ki was less than 75 nM.

Turning to `CCCCC(NC(=O)[C@@H]1[C@@H]2[C@H](CN1C(=O)[C@@H](NC(=O)NC1(CS(=O)(=O)C(C)(C)CC)CCCCC1)C1(C)CCCCC1)C2(C)C)C(=O)C(=O)NC1CC1` (stereo partly drawn) [Compound 521], the Ki was less than 75 nM.

Consider `C=CCNC(=O)C(=O)[C@H](CC1CC1)NC(=O)[C@@H]1[C@@H]2[C@H](CN1C(=O)[C@@H](NC(=O)NC1(CS(=O)(=O)C3CCCCC3)CCCCC1)C(C)(C)C)C2(C)C` [Compound 796], for which the Ki is less than 75 nM.

On to `CCNC(=O)C(=O)[C@H](CCC1CC1)NC(=O)[C@@H]1[C@@H]2[C@H](CN1C(=O)[C@@H](NC(=O)NC1(CS(=O)(=O)C(C)(C)CC)CCCCC1)C1(C)CCCCC1)C2(C)C` [Compound 883-da], for which the Ki is less than 75 nM.

With `C=CCNC(=O)C(=O)[C@H](CC1CC1)NC(=O)[C@@H]1[C@@H]2[C@H](CN1C(=O)[C@@H](NC(=O)NC1(CS(=O)(=O)C3CCCC3)CCCCC1)C(C)(C)C)C2(C)C` [Compound 702], the inhibition constant (Ki) is less than 75 nM.

For `C=CCNC(=O)C(=O)[C@H](CCCC)NC(=O)[C@@H]1[C@@H]2[C@H](CN1C(=O)[C@@H](NC(=O)NC1([C@@H]3CCCS3(=O)=O)CCCCC1)C1CCCCC1)C2(C)C` [Compound 883-au], the Ki was less than 75 nM.

With `C=CCNC(=O)C(=O)C(CCC)NC(=O)[C@@H]1C[C@@H](C(F)(F)F)CN1C(=O)[C@@H](NC(=O)NC1(CS(=O)(=O)C(C)(C)C)CCCCC1)C1CCCCC1` (stereo partly drawn) [Compound 418], the Ki is less than 75 nM.

With `CC1([C@H](NC(=O)NC2(CS(=O)(=O)C(C)(C)C)CCCCC2)C(=O)N2C[C@H](C(F)(F)F)C[C@H]2C(=O)NC(CC2CC2)C(=O)C(=O)NC2CC2)CCCCC1` (stereo partly drawn) [Compound 467], the inhibition constant Ki is 75 to 250 nM.

Consider `C=CCNC(=O)C(=O)C(CCCC)NC(=O)[C@@H]1C[C@@H](NS(=O)(=O)c2ccc(OC)cc2)CN1C(=O)[C@@H](NC(=O)NC1(CS(=O)(=O)C(C)(C)C)CCCCC1)C(C)(C)C` (stereo partly drawn) [Compound 653], for which the Ki is more than 250 nM.

Turning to `C=CCNC(=O)C(=O)[C@H](CCC)NC(=O)[C@@H]1[C@@H]2[C@H](CN1C(=O)[C@@H](NC(=O)NC1(C3OCCS3(=O)=O)CCCCC1)C(C)(C)C)C2(C)C` (stereo partly drawn) [Compound 883-s], the inhibition constant (Ki) is less than 75 nM.

For `CCC[C@H](NC(=O)[C@@H]1[C@@H]2[C@H](CN1C(=O)[C@@H](NC(=O)NC1(C3OCCS3(=O)=O)CCCCC1)C(C)(C)C)C2(C)C)C(=O)C(=O)NC1CC1` (stereo partly drawn) [Compound 883-u], the Ki is less than 75 nM.

`C#CCCC(NC(=O)[C@@H]1[C@@H]2[C@H](CN1C(=O)[C@@H](NC(=O)NC1(CS(=O)(=O)C(C)(C)C)CCCCC1)C1(C)CCCCC1)C2(C)C)C(=O)C(=O)NCCC1CC1` (stereo partly drawn) [Compound 446]: the Ki is less than 75 nM.

Take `C=CCNC(=O)C(=O)C(CCC1CC1)NC(=O)[C@@H]1[C@H]2CC(C)(C)O[C@H]2CN1C(=O)[C@@H](NC(=O)NC1(CS(=O)(=O)C(C)(C)C)CCCCC1)C1CCCCC1` (stereo partly drawn) [Compound 547]: the Ki is less than 75 nM.

Consider `CCC[C@H](NC(=O)[C@@H]1[C@@H]2[C@H](CN1C(=O)[C@@H](NC(=O)NC1(CS(=O)(=O)C(C)(C)CO)CCCCC1)C1(C)CCCCC1)C2(C)C)C(=O)C(=O)NC1CC1` [Compound 761], for which the Ki is less than 75 nM.

Take `CCCC(NC(=O)[C@@H]1[C@@H]2[C@H](CN1C(=O)[C@@H](NC(=O)NC1(CS(=O)(=O)C(C)(C)CO)CCCCC1)C1(C)CCCCC1)C2(C)C)C(=O)C(=O)NC1CC1` (stereo partly drawn) [Compound 678]: the Ki is less than 75 nM.

As to `CNC(=O)C(=O)[C@H](CCC1CC1)NC(=O)[C@@H]1[C@@H]2[C@H](CN1C(=O)[C@@H](NC(=O)NC1(CS(=O)(=O)C(C)(C)C)CCCCC1)C(C)(C)C)C2(C)C` [Compound 883-ba], the Ki is less than 75 nM.

Turning to `C=CCNC(=O)C(=O)C(CC1CC1)NC(=O)[C@@H]1[C@@H]2[C@H](CN1C(=O)[C@@H](NC(=O)NC1(CS(=O)(=O)CC(F)(F)F)CCCCC1)C1(C)CCCCC1)C2(C)C` (stereo partly drawn) [Compound 525], the Ki is less than 75 nM.

Consider `CC1([C@H](NC(=O)NC2(C3CCCS3(=O)=O)CCCCC2)C(=O)N2C[C@H]3[C@@H]([C@H]2C(=O)NC(CCC2CC2)C(=O)C(=O)NC2CC2)C3(C)C)CCCCC1` (stereo partly drawn) [Compound 641], for which the Ki is less than 75 nM.

On to `CNC(=O)C(=O)[C@H](CC1CC1)NC(=O)[C@@H]1[C@@H]2[C@H](CN1C(=O)[C@@H](NC(=O)NC1(CS(=O)(=O)C(C)(C)C)CCCCC1)C1(C)CCCCC1)C2(C)C` [Compound 883-ci], for which the Ki was less than 75 nM.

`C=CCNC(=O)C(=O)[C@H](CCC1CC1)NC(=O)[C@@H]1[C@@H]2[C@H](CN1C(=O)[C@@H](NC(=O)NC1(CS(=O)(=O)C(C)(C)C)CCCCC1)C1(C)CCCCC1)C2(C)C` [Compound 883-b]: the Ki is less than 75 nM.

Still in this assay, the particulars now being: Table 4; read-out: Ki* range.
As to `C=CCNC(=O)C(=O)C(CCCC)NC(=O)[C@@H]1[C@@H]2[C@H](CN1C(=O)[C@@H](NC(=O)N[C@H](CS(=O)(=O)N(C)C)C(C)(C)C)C(C)(C)C)C2(C)C` (stereo partly drawn) [Compound 1008], the Ki fell in the range of 75 to 250 nM.

`C=CCNC(=O)C(=O)C(CC1CC1)NC(=O)[C@@H]1[C@@H]2[C@H](CN1C(=O)[C@@H](NC(=O)N[C@H](CS(=O)(=O)NCCCCl)C(C)(C)C)C(C)(C)C)C2(C)C` (stereo partly drawn) [Compound 1001]: the Ki was in the range of 75 to 250 nM.

The assay is the same for the next values; noted with them: Table 4A; read-out: Ki* Range.
Take `C=CCNC(=O)C(=O)C(CCCC)NC(=O)[C@@H]1[C@@H]2[C@H](CN1C(=O)[C@@H](NC(=O)N[C@@H]([C@@H]1CCN(Cc3ccc(OC)cc3)S1(=O)=O)C(C)(C)C)C1(C)CCCCC1)C2(C)C` (stereo partly drawn) [Compound 1119]: the Ki was more than 250 nM.

For `C=CCNC(=O)C(=O)C(CC1CC1)NC(=O)[C@@H]1[C@@H]2[C@H](CN1C(=O)[C@@H](NC(=O)N[C@H](CS(=O)(=O)N(C)C)C(C)(C)C)C(C)(C)C)C2(C)C` (stereo partly drawn) [Compound 1104], the Ki lay in the range of 75 to 250 nM.

Staying with this assay, now noted: Table 5; read-out: Ki*.
Take `C#CCCC(NC(=O)[C@@H]1C2[C@H](CN1C(=O)[C@@H](NC(=O)NC1(CS(=O)(=O)C(C)(C)C)CCCCC1)C1(C)CCCCC1)C2(C)C)C(=O)C(=O)NC1CC1` (stereo partly drawn): the Ki is 6 nM.

On to `C=CCNC(=O)C(=O)C(CC1CC1)NC(=O)[C@@H]1C2[C@H](CN1C(=O)[C@@H](NC(=O)NC1(CS(=O)(=O)C(C)(C)C)CCCCC1)C(C)(C)C)C2(C)C` (stereo partly drawn), for which the Ki amounted to 14 nM.

For the compound `C#CCCC(NC(=O)[C@@H]1C2[C@H](CN1C(=O)[C@@H](NC(=O)NC1(CS(=O)(=O)C(C)(C)C)CCCCC1)C1(C)CCCCC1)C2(C)C)C(=O)C(=O)NCCC` (stereo partly drawn), the Ki stood at 4 nM.
